Measurements: PubChem BioAssay AID1346428 (National Center for Advancing Translational Sciences (NCATS), 2018)
Screen size: about 48,000 compounds; about 1,200 (2.5%) were called active. About 2% were inconclusive and are not listed.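 The calls were made as follows: active = activation of at least 60% and not above a set upper limit (about 1 call in 100 departs from these limits); inconclusive = activation of 40% to 60%, or above that upper limit; inactive = activation under 40%.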 Some of the results follow.

biological target: Probable G-protein coupled receptor 32 (Homo sapiens) (UniProt O75388); experiment: qHTS for Agonists of Human Resolvin D1 Receptor DRV1; settings: CHO-K1 GPR32 beta-arrestin PathHunter luminescence, 90 min; at 76.9 µM; active compounds read high; zero percent set by DMSO-only wells; also: 0% is about no effect
Method in brief: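 Agonism was scored by beta-Gal fragment complementation (chemiluminescent read, 1 h detection at ambient temperature) reporting beta-arrestin binding to GPR32 in engineered CHO-K1 cells. Compound treatment lasted 90 min at 37 C, normalized to a DMSO basal control.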

UniProt O75388, sequence (O75388 whole entry, looked up, the tested form may be a part): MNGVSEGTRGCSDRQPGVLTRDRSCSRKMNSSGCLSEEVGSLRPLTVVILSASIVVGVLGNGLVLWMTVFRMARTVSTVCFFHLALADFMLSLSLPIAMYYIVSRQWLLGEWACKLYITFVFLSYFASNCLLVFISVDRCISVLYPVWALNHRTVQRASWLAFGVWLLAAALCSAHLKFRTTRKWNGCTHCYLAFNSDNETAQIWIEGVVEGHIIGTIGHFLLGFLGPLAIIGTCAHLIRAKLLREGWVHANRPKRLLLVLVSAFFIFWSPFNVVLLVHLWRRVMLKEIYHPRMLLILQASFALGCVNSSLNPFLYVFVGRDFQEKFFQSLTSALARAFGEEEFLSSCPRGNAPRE

activation, inactive:
Cc1ccc(-n2ncc(C(=O)NCc3ccccc3C)c2-n2cccc2)cc1 -6.6%
O=C(NCc1ccc2c(c1)CCN2C(=O)c1ccc(F)cc1)c1cc2ccccc2[nH]1 -15.6%
COc1ccc(-c2[nH]c3ccccc3c2SCCNC(=O)c2cc(OC)c(OC)c(OC)c2)cc1 -18.7%
COc1ccccc1CNC(=O)CCC(=O)N1CC2CCCN2c2ccccc21 (configuration not stated) 6.67%
O=C(Cc1ccc(Cl)cc1)Nc1ccc2nn(-c3ccc(Cl)cc3)nc2c1 -6.27%
Cc1cccc(C)c1OCCn1c(C2CC(=O)N(c3cccc(Cl)c3)C2)nc2ccccc21 (configuration not stated) -6.04%
COc1cccc(NC(=O)C2CCCN(S(=O)(=O)c3c(C)nn(C)c3C)C2)c1 (configuration not stated) 11.1%
COc1ccc(SCc2cc(=O)c3cc(Cl)ccc3[nH]2)cc1 22.8%
c1ccc(CNc2nc3c(-c4ccccc4)nnn3c3ccccc23)cc1 6.26%
CCOc1ccc(OCC)c(NS(=O)(=O)c2cc(-c3cc(C)no3)ccc2C)c1 -20.5%
Cc1ccc(CNC(=O)c2ccc(Cn3c(=O)c4ccccc4n(CC(=O)Nc4ccc(C)cc4C)c3=O)cc2)cc1 -8.07%
CCc1ccccc1N1C(=O)N(Cc2ccc(C#N)cc2)c2ccccc2S1(=O)=O -15.1%
CC(C)Sc1oc(-c2cccs2)nc1S(=O)(=O)c1ccc(Cl)cc1 -30.5%
NC(N)=NC(N)=NCCc1ccccc1 -22.7%
CCn1c2ccccc2c2cc(CN3CCN(Cc4ccccc4F)CC3)ccc21 -31.5%
CCOc1ccc(CCNC(=O)c2cn(CC)c3ccc(S(=O)(=O)N4CCc5ccccc5C4)cc3c2=O)cc1OCC -10.1%
CCOc1ccc(S(=O)(=O)NCCc2sc3nc(-c4ccc(F)cc4)nn3c2C)cc1 -11%
CCc1ccc(NCc2cc3cc4c(cc3n(CC(=O)Nc3ccc(C)cc3)c2=O)OCO4)cc1 -34.5%
CCC(=O)Oc1ccc(/C=C(\C#N)c2nc3ccccc3[nH]2)cc1OC 31%
COc1ccc(-c2cc(C(F)(F)F)nc(S(=O)(=O)CCCC(=O)Nc3cccc(O)c3)n2)cc1OC -17.5%
CCOc1ccccc1NC(=O)C(=O)NCCc1sc(-c2cccc(F)c2)nc1C -4.47%
Cc1oc2ncnc(N3CCCCC3)c2c1C(=O)N1CCN(c2cccc(C(F)(F)F)c2)CC1 27.9%
CCOc1ccc(NC(=O)NCc2c(-n3cccc3)sc3c2CCCC3)cc1 5.39%
CCOc1ccc(NC(=O)C2CCCN(S(=O)(=O)c3cccc4nonc34)C2)cc1 (configuration not stated) 21.4%
Cc1ccc(Nc2c(-c3cccs3)nc3nc(C)cc(C)n23)cc1 -23.2%
CC(=O)c1ccc(NC(=O)CSc2nnc3ccc(-c4ccc(Cl)cc4)nn23)cc1 -2.73%
COc1ccc(Cl)cc1C(=O)Nc1sc2c(c1C(=O)OC(C)C)CCCC2 9.22%
O=C(C1CC1)N1CCc2cc(Br)cc(S(=O)(=O)N3CCN(c4cccc(C(F)(F)F)c4)CC3)c21 -0.137%
CCCCOc1ccc(-c2nn(-c3ccccc3)cc2C2NC(=O)NC(C)=C2C(=O)OC)cc1 (configuration not stated) -16.7%
COc1ccccc1CNC(=O)C1CCCN(c2nc3ccccc3n3cccc23)C1 (configuration not stated) -22.9%
CCCCN(C)c1nc2c(S(=O)(=O)c3ccc(CC)cc3)nnn2c2ccc(Cl)cc12 -10.3%
COc1ccccc1NC(=O)C1=C(C)Nc2c(C(=O)Nc3ccc(F)cc3)cnn2C1c1cccc([N+](=O)[O-])c1 (configuration not stated) -18.6%
COc1ccc(NC(=O)Cn2c(=O)n(-c3ccc(OC)c(OC)c3)c(=O)c3ccccc32)cc1 -0.224%
COc1cc(C(CC(=O)NCc2ccc(F)cc2)N2Cc3ccccc3C2=O)cc(OC)c1OC (configuration not stated) 11.9%
CC(=O)N1CCc2cc(Br)cc(S(=O)(=O)N3CCN(c4cccc(C(F)(F)F)c4)CC3)c21 2.87%
COc1ccc(C(F)(F)F)cc1NC(=O)c1sc2nc(-c3cccs3)ccc2c1N -6.33%
CC(=O)c1ccc(N2CCN(c3ncnc4c3c(-c3ccccc3)cn4-c3cccc(C)c3)CC2)cc1 -23.2%
Cc1noc(/C=C/c2cccs2)c1S(=O)(=O)N1CCC(C(=O)Nc2ccc(F)c(Cl)c2)CC1 -24.4%
COC(=O)c1ccccc1NC(=O)c1ccc(COc2ccccc2Cl)o1 4.45%
COc1ccc(C2CC(=O)c3cc(-c4nc(-c5cccc(Cl)c5)cs4)c(=O)[nH]c3C2)cc1OC (configuration not stated) 3.02%
CCOc1ccc(NC(=O)c2ccc(NC(=O)N3CCSc4ncccc43)cc2)cc1 1.35%
Cc1cccc(N2CCN(c3ncnc4c3nc3n4CCCCC3)CC2)c1C 19.1%
CCOC(=O)c1ccc(NC(=O)c2c(-c3c(F)cccc3Cl)noc2C)cc1 -11.7%
CCC(=O)N1CCc2cc(Br)cc(S(=O)(=O)N3CCC(C(=O)NCCCOC(C)C)CC3)c21 -13.5%
Nc1c(-c2nc(-c3cccs3)no2)nnn1-c1ccc(Cl)cc1 1.78%
COc1cccc(C(=O)Nc2cccc(C(=O)OCc3cc(=O)n4nc(C5CC5)sc4n3)c2)c1 -11.8%
O=C(NC1CCCCC1)c1ccc(Cn2c(SCc3ccccc3F)nc3cccnc32)cc1 -20.6%
CSc1ncc2c(n1)-c1ccccc1N(Cc1ccc(Cl)cc1)S2(=O)=O -12.7%
CCOC(=O)c1cnn(-c2ccc(C(=O)Nc3cc(OC)c(OC)c(OC)c3)cc2)c1N -2.62%
CC1CCN(S(=O)(=O)c2cn(CC(=O)Nc3cccc(C(F)(F)F)c3)c(=O)c3ccccc23)CC1 -13.4%
O=C(CSc1ccccc1)N1CCc2c([nH]c3ccccc23)C1c1ccc(F)cc1 (configuration not stated) -35.8%
O=C(Cn1cc(C(=O)c2ccco2)c2ccccc21)Nc1ccc(Br)cc1 2.68%
COC(=O)c1cc2oc3ccccc3c2n1Cc1nc(-c2ccc(OC)cc2)oc1C -2.24%
CCn1c(C(=O)NCCc2ccc(OC)c(OC)c2)cc2sc(Cl)cc21 -11.6%
COc1ccc(Cl)cc1NC(=O)c1c(NCc2ccc(C)o2)sc2c1CCCCC2 -13.2%
CCCCNc1nc(Oc2ccc(OCC)nn2)nc(N2CCOCC2)n1 28.9%
COc1cccc(NC(=O)c2ccc3nc(CCc4ccccc4)oc3c2)c1 -0.354%
CCC1CCCCN1C(=O)Cn1c(=O)n(CCCCCC(=O)NCc2ccccc2)c(=O)c2sccc21 (configuration not stated) 2.01%
CSc1ncc(Cl)c(C(=O)Nc2ccc(NC(C)=O)cc2)n1 -49.3%
COc1cccc(CSc2nc3ccccc3c3nc(CCn4c(C)nc5ccccc54)nn23)c1 -0.999%
CCCn1c2ccccc2c2cnn(CC(=O)N(C)c3ccc(F)cc3)c(=O)c21 12.3%
COc1ccc(-n2c(CC3C(=O)N(C)c4ccc(C)cc43)nc3ccccc3c2=O)cc1 (configuration not stated) -12.8%
CCc1ccc(NC(=O)CN(c2ccc(OC)cc2)S(=O)(=O)c2c(C)[nH]c(=O)[nH]c2=O)cc1 -13.7%
Oc1c(C(c2ccccc2Cl)N2CCCC2)sc2nc(-c3ccco3)nn12 (configuration not stated) -13.5%
CC(=O)Nc1ccc(NC(=O)CSc2nc3ccccc3nc2N2CCOCC2)cc1 -3.84%
CCOc1ccc(N(CC(=O)NCc2ccccc2Cl)S(=O)(=O)c2c(C)[nH]c(=O)[nH]c2=O)cc1 1.73%
COc1ccc(S(=O)(=O)N2CCC(Oc3ccc(-n4cnnn4)cc3)CC2)cc1OC -4.45%
CCOc1ccc(C(=O)c2cn(Cc3ccccc3OC)c3ccc(F)cc3c2=O)cc1 1.09%
Fc1ccc(CN2CCc3nc(Nc4ccccc4)ncc3C2)cc1F -26.9%
O=C(O)[C@H](O)c1ccccc1 0.969%
CN1C(=O)c2ccccc2Sc2ccc(NC(=O)COc3ccc(F)cc3)cc21 15.9%
Cc1nn(-c2ccccc2)c2nc(C3CC3)cc(C(=O)Nc3ccccc3F)c12 -7.44%
COc1ccc(-c2noc(CNC(=O)c3ccco3)n2)cc1 -11.8%
O=C(NCc1ccco1)c1ccc2c(c1)N(Cc1cccc(Cl)c1)C(=O)c1ccccc1S2(=O)=O -29.1%
Cc1ccc(CNC(=O)CSc2cc(C)[nH]c(=O)n2)cc1 20%
Cc1ccccc1C(=O)Nc1nnc(S(=O)(=O)N2c3ccccc3CC2C)s1 (configuration not stated) 11.8%
COc1ccc(C2C(=O)N(C3CCCCCC3)CC(=O)N2Cc2ccc(C)cc2)cc1OC (configuration not stated) -30.5%
COc1cc(C(=O)N2CCC(c3nc4ccccc4o3)CC2)cc(OC)c1OC 8.16%
Cc1c(NS(=O)(=O)c2ccccc2)cc(C(C)C)c(O)c1S(=O)(=O)c1ccc(Cl)cc1 18.7%
CC1CCN(C(=O)CSc2nc(-c3ccccc3)no2)CC1 45.8%
C(=C\c1ccccc1)/CN1CCN(C(c2ccccc2)c2ccccc2)CC1 -15.3%
COc1ccc(C(c2c(O)cc(C)n(Cc3ccco3)c2=O)N2CCCCC2)cc1OC (configuration not stated) -19.9%
